# Laboratory results: the RNAGym collection of RNA variant scans (doi:10.7554/elife.90254)
# Read counts are not given, so values of variants with three or more changes are uncertain.
# B1: LINE1-mini (parent)
# chain: GGCAGAGCUCAACACAGCGUGGCAAAGUGGCUGUGGCUAGACUGCC
# Variants of: B1
# Experiment: self-cleavage, relative activity (ratio to wild type); higher = more cleavage; in vitro, sequencing; the parent is a self-cleaving ribozyme
row,Variant,self-cleavage
1,G2U C3U C10U C31A,0.04
2,G2C C10A A14C G33A,0
3,C23A G29A G40C C42U U43C,0.12
4,A16G A26C U38G,0.03
5,C8U C13G G19C U34A,0.05
6,A14G A41C U43C,0.05
7,A6C C10A G27C C42U,0.02
8,C10A G22U C42G,0.01
9,G1A G2A C3G U9C U20C U38A A41U,0.5
10,C8A C15G A16G G35A,0.09
11,A12U C18A G21C,0.19
12,G7A C18A C31U G35U G44A,0.03
13,G5U U20G G36C C37G G44A,0.02
14,C13U U28A U34A,0.08
15,G17U G33U G40U A41C C46G,0.02
16,C10G C13G G17C A24U C37G,0.01
17,C8U A11C A26U G33C A39U,0.01
18,G5C A11C A12G A16G G21C,0.01
19,G2U G7C U20G G33U A41C,0.04
20,A4C A6G C10G A26U U43G C45A,0
21,G7A A25G C31U G33U,0.02
22,A14G U20G G35U,0.07
23,C15U A25G G29A U34C G36U,0.04
24,C10U U38A G40C,0.03

row,Variant,self-cleavage
1,U9A C13A C18U C23U A24C C31A,0.05
2,G2U G21A C23A C42U,0.06
3,A12C G36C C42U,0.02
4,C13U A14C G19A G33U,0.07
5,G5A A12G G19C,0.03
6,G19U U32G C37A C42U,0.06
7,G5U G7C C10A C13U,0.05
8,G27A G40C U43A,0.02
9,G2U U9G A12C G19U G22U,0.01
10,C10G A14G C23U,0.02
11,C8A A12U A16C G40U,0.06
12,G5A U20G A24U G33U,0.06
13,G2U A26C G30U G44U,0.19
14,G1C A16G G27U,0.1
15,G33C C37U U43G,0
16,G5A C10G A16G A41G,0.02
17,G5U C31A G33A C46A,0.05
18,G1A C8A G44C,0.27
19,C15A G27U C45U,0.07
20,G2C A14U G33C G40A C45A,0
21,G2A G17A U20G G27A U34G G40U,0.03
22,G2A G5A C23A G35C,0.44
23,A6C A11U A16C G33U,0.01
24,C8A C10G A11G A16U,0

row,Variant,self-cleavage
1,C3G A6G C23A,0.11
2,A12C G17U G35A,0
3,G19A C37G A39G,0
4,G29C U38G A39G C42G,0.01
5,C8G G21A A24C A25U A26G C37A,0.13
6,A4G G5U G22A C46G,0.03
7,G2C A12G A25G,0.02
8,G5U U34C G40C,0.04
9,C23G G33A A39C G40A G44A C46U,0.04
10,G5C A14G A41U,0.07
11,G1C A12U G19A G36C,0.01
12,A4G C10U G22C A24U A25C C31U,0.02
13,G7U A16U C42G,0.25
14,C10G A11C G21U G27A G33A,0.02
15,G7A G40C U43A C45G C46U,0.01
16,C10A A14U C46G,0.01
17,G2A C18U C23A A26U,0.07
18,G19A A25U U28A,0.36
19,C10A C13A G29C,0.02
20,A14G U34G U38G,0.02
21,C10U A12G G17U,0.04
22,A26G G35C C42G,0
23,G1U C8U C10A C13A C31U G33U,0.01
24,C15A G22U U38A G40A,0.17

row,Variant,self-cleavage
1,A6U C15A G21C,0.15
2,G5U U9G G36A,0.35
3,G7C C8A C18G A25G,0.01
4,C8U C13A G40U C45A,0.04
5,A4G A11G C42A,0.04
6,C8G C18G G19U G30C U32C C37A A39G G40U A41U,0
7,C10A C15A G30A G36U A39G,0.03
8,C3U G21U G27A G36A,0.16
9,G5A C8G A14U C23A C31G U32A,0.05
10,A6G G17A A39U G44A,0.04
11,C10A A25U A26C G30A,0.07
12,A11C C13G A41U,0.02
13,A4C A11G G19U G22C U32C C46A,0.01
14,G1C A24C G40U,0.02
15,G7U A11C C42U,0.03
16,A12G G17C C18A,0.01
17,G1C C10A A26G,0.04
18,C10G A16G C42G,0.02
19,G1A G2C G7A U38A,0.18
20,C13A G21U G35U U43A,0.2
21,C15A C23U G40A C45U,0.03
22,A6U G7A G19U A24U,0.1
23,A26C G35U C45U,0.1
24,G2A A4C G5A C15U A16U G17U G27U G29A U32G,0.2

row,Variant,self-cleavage
1,G2U A4G C15A U34A G40C,0.05
2,G7C C8G A11C A26G A41U C46G,0.02
3,G1C G2A G19C G21A,0.15
4,G7A C31A C45G,0.21
5,C8A G17A C31U A39U G44A C46A,0.11
6,C8A C13A C18U A25G U28C C37U A39G,0.41
7,C8A U9A G21U,0.07
8,A4C C10G C31A G35C G36A C42G,0.02
9,G1C G35C G40C,0.01
10,A6U C8G A11C C18U A26U G27A C31A U34C,0
11,G2A U9A U20G G22C G35C G44C,0.34
12,G5U C10U A11C G29A C31G G33C,0.02
13,C13A G30C U43C,0.03
14,G7U G22U G36A A41U,0.18
15,C10A C13G G19A G35U,0.06
16,A4U C15G A41U,0.01
17,G17U C23U G30U G36C U38G,0.02
18,C18U G29A G35U,0.05
19,A6G U20A C45A,0.27
20,G19U G30C U32A G35U U43A,0.02
21,C15G C18U G22U U28G A39G A41U,0.02
22,G21U G30A U34A C45A,0.06
23,C3G G33U A39G,0.75
24,G22U A41U G44A,0.14

row,Variant,self-cleavage
1,G7A G21C U43A,0.08
2,C10G U32G G35C,0.02
3,G5C G19A G21A G22A,0.1
4,G5U C10A A12U G27U G30A C45U,0.06
5,C15A U28A U34G A41U U43C,0
6,C8U G35U G44A,0.26
7,C10A U34G C37G A39G G44A,0.01
8,G19A U20A U43A,0.06
9,U9A G40A C46A,0.13
10,G17U A26U U43A,0.05
11,U9G G21A G36A C37U,0.02
12,G2A C13G G29C G40U,0.05
13,A11G A16U C46U,0
14,A6U C18G A39U,0.17
15,A14U C18A C42U,0.03
16,A4U U9G C18G,0.42
17,A6U A25U C31U C45U,0.84
18,C15A G40A C46G,0.03
19,U28C U32C U38C,0.11
20,G5C A14C C18G G33U C37G U38G C46U,0
21,G19A A25U A26C C46U,1.43
22,C10U A14U U34A,0.43
23,A16U C23U G27A U34G A41G,0.03
24,G22A G33A G44U,0.04

row,Variant,self-cleavage
1,G2A A6G G19U G36C,0.16
2,G17C G30U C31U C37A,0.14
3,G1C G2C C3A G19A,0.1
4,G1C U9G U20G C23A,0
5,C3A C10G G29U G36C A41C,0.02
6,A11C C13U C23A,0.04
7,G5U A6G C10A C15G G21A,0.03
8,G2U U9G C15A G19A,0.02
9,C10A A14U G21U G36U,0.01
10,G17A C31A U32C U34C,0.04
11,C8A C13G A16G G17U U28A G33A C45A,0.32
12,G1A A16U C23U A24G G29C C46G,0.6
13,A6U C18G G40C,0.03
14,G1U A11U C46A,0.13
15,C8G C23A G33U,0.02
16,U9G A12U C15G U28C G29A,0.1
17,G17C G35A G40U,0.02
18,C3G A6G U20C,0.09
19,G21C G33U C37U,0.2
20,A6U C8U C10A,0.03
21,A14U G22U C42G,0.03
22,A6U C23U C42U C46U,0.42
23,G2U C10A C18A C23U G36A,0.01
